Here are results for nine molecules from the supplement of paper PMC4604168 (melanoma cell lines).

Test systems include MZ2-MEL; MeWo; RPMI7951; RVH-421; SkMel28; SkMel2; SkMel30; SkMel5; UACC257; UACC62; WM115; WM1716; WM1745; WM3526; WM3619; WM451Lu.
Common to all, as to assay: cell count relative to DMSO control; melanoma cells; higher = more viable cells
Holding throughout (conditions): library dose: low library concentration; 72 h

Some of the results follow. Many values rest on one well or one pass, so single values are uncertain.
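Further: cell number obtained by counting DAPI-stained nuclei in high-throughput microscope images with image analysis software, screen run in 1,536-well plates.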

In the case of `O=C(O)c1ccc2c(c1)nc(Nc1cccc(Cl)c1)c1ccncc12` + Cc1ccc(NC(=O)c2cccc(N(C)C)c2)cc1NC(=O)c1ccc(O)cc1 [ZM336372] (first compound 0.4 µM, partner dose 2 µM), the cell count came to 74.3% in the assay on MZ2-MEL; 88.9% with MeWo; 67.9% in the assay on RPMI7951; 83.9% with RVH-421; 106% with SkMel28; 98.6% in the assay on SkMel2. Moreover, the cell count came out at 76% in the assay with SkMel30; 111% in the assay with SkMel5; 98.5% with UACC257; 90.6% in the assay on UACC62; 94.8% in the assay with WM115; 90% in the assay with WM1716. Also, the cell count in the assay with WM1745 came to 80.5%; in the assay on WM3526, 78.6%; in the assay with WM3619 it was 85.1%; in the assay on WM451Lu, 85.2%.

On to `O=C(Nc1cc(C(F)(F)F)cc(C(F)(F)F)c1)c1cc(Cl)ccc1O` + COc1cc(Nc2ncc(F)c(Nc3ccc4c(n3)NC(=O)C(C)(C)O4)n2)cc(OC)c1OC [Tamatinib] (first compound 0.016 µM, partner dose 0.4 µM), for which the cell count worked out at 85.1% in the assay with MZ2-MEL; 77.7% with MeWo; 98.2% in the assay on RPMI7951; 98.4% with RVH-421; 88% with SkMel28; 101% in the assay on SkMel2. The cell count stood at 91.7% in the assay with SkMel30; 98.7% with SkMel5; 81.3% in the assay on UACC257; 83.1% in the assay on UACC62; 93.4% in the assay with WM115; 87.9% in the assay with WM1716. Also, the cell count turned out to be 51.5% in the assay with WM1745, 102% in the assay with WM3526, 95% in the assay with WM3619 and 82.2% with WM451Lu.

`O=C(O)[C@@H]1[O][Sb](=[O])([O][Sb]2(=[O])[O][C@H]([C@H](O)CO)[C@H](O)[C@H](C(=O)O)[O]2)[O][C@H]([C@H](O)CO)[C@@H]1O` (some centres undefined) [stibogluconate] + COc1cc2c(Oc3ccc4[nH]c(C)cc4c3F)ncnc2cc1OCCCN1CCCC1 [cediranib] (first compound 2 µM, partner dose 0.4 µM): the cell count was determined as 98.9% with MZ2-MEL; 90.7% in the assay on MeWo; 114% with RPMI7951; 90.4% with RVH-421; 83% in the assay on SkMel28; 95.9% with SkMel2. Further, the cell count in the assay on SkMel30 came out at 103%; with SkMel5, 88.2%; in the assay on UACC257, 70.9%; with UACC62, 108%; in the assay with WM115, 103%; in the assay with WM1716 it was 95.4%. Also, the cell count in the assay with WM1745 worked out at 89.8%; in the assay on WM3526 it was 102%; in the assay with WM3619, 123%; with WM451Lu it was 111%.

Regarding `O=C(Nc1cc(C(F)(F)F)cc(C(F)(F)F)c1)c1cc(Cl)ccc1O` + O=S(=O)(c1ccccc1)N(CC(F)(F)F)c1ccc(C(O)(C(F)(F)F)C(F)(F)F)cc1 [T0901317] (first compound 0.016 µM, partner dose 1.4 µM), the cell count in the assay on MZ2-MEL was determined as 91.3%; in the assay with MeWo it was 95.9%; in the assay on RPMI7951, 81.9%; in the assay with RVH-421, 94.2%; with SkMel28, 110%; in the assay on SkMel2, 98.6%. Also, the cell count was found to be 88.1% in the assay on SkMel30; 80% with SkMel5; 80.2% in the assay with UACC257; 89.1% in the assay on UACC62; 102% with WM115; 106% in the assay on WM1716. Moreover, the cell count turned out to be 81.9% with WM1745, 101% with WM3526, 121% in the assay on WM3619 and 75.1% in the assay with WM451Lu.

Take `O=C(O)c1ccc2c(c1)nc(Nc1cccc(Cl)c1)c1ccncc12` + CC(C)(C)c1cnc(CSc2cnc(NC(=O)C3CCNCC3)s2)o1 [SNS-032] (first compound 0.4 µM, partner dose 0.01 µM): the cell count in the assay on MZ2-MEL is 88.8%; in the assay on MeWo it was 96.8%; in the assay on RPMI7951, 77.3%; with RVH-421, 108%; in the assay on SkMel28, 92.5%; in the assay with SkMel2, 103%. The cell count in the assay with SkMel30 came to 108%; in the assay on SkMel5, 110%; in the assay with UACC257, 80.4%; in the assay with UACC62, 85.2%; with WM115 it was 84.3%; with WM1716 it was 86.3%. For the same molecule, the cell count was determined as 63% with WM1745, 114% in the assay on WM3526, 87.6% in the assay with WM3619 and 93.1% in the assay with WM451Lu.

In the case of `O=C(Nc1cc(C(F)(F)F)cc(C(F)(F)F)c1)c1cc(Cl)ccc1O` + O=c1cc(-c2cccc3c2Sc2ccccc2S3)oc(N2CCOCC2)c1 [KU55933] (first compound 0.016 µM, partner dose 1 µM), the cell count with MZ2-MEL amounted to 95%; with MeWo, 92.6%; in the assay with RPMI7951 it was 89.7%; with RVH-421, 141%; with SkMel28, 105%; in the assay on SkMel2 it was 93.6%. Besides, the cell count with SkMel30 was found to be 87.5%; with SkMel5, 112%; in the assay with UACC257 it was 129%; in the assay with UACC62 it was 99.1%; in the assay on WM115 it was 97.3%; with WM1716, 119%. Moreover, the cell count in the assay on WM1745 is 99.1%; in the assay on WM3526, 90.2%; in the assay with WM3619 it was 105%; in the assay with WM451Lu it was 102%.

Consider `O=C(O)[C@@H]1[O][Sb](=[O])([O][Sb]2(=[O])[O][C@H]([C@H](O)CO)[C@H](O)[C@H](C(=O)O)[O]2)[O][C@H]([C@H](O)CO)[C@@H]1O` (some centres undefined) [stibogluconate] + CC1(C)NC(=O)N(c2ccc([N+](=O)[O-])c(C(F)(F)F)c2)C1=O [nilutamide] (first compound 2 µM, partner dose 1 µM), for which the cell count in the assay with MZ2-MEL came to 96.7%; in the assay on MeWo, 93.8%; in the assay on RPMI7951, 119%; in the assay with RVH-421, 103%; in the assay with SkMel28 it was 94.1%; in the assay on SkMel2, 108%. Also, the cell count in the assay with SkMel30 was determined as 97.2%; in the assay with SkMel5, 88.7%; with UACC257, 89.5%; in the assay with UACC62, 115%; with WM115 it was 109%; in the assay with WM1716 it was 109%. The cell count with WM1745 is 113%; in the assay on WM3526 it was 85.3%; in the assay with WM3619 it was 108%; in the assay on WM451Lu, 98.6%.

In the case of `Cn1nnc2c(C(N)=O)ncn2c1=O` [temozolomide] + O=C(CCCCCCC(=O)Nc1ccccc1)NO [vorinostat] (first compound 2 µM, partner dose 0.08 µM), the cell count in the assay on MZ2-MEL was 98.1%; in the assay with MeWo, 104%; in the assay on RPMI7951 it was 87.6%; with RVH-421, 92.9%; with SkMel28, 69.1%; in the assay on SkMel2, 106%. The cell count in the assay with SkMel30 is 103%; with SkMel5 it was 101%; with UACC257, 88%; in the assay with UACC62, 86.1%; in the assay with WM115 it was 110%; in the assay with WM1716, 106%. For the same molecule, the cell count was determined as 103% in the assay on WM1745, 111% with WM3526, 88.4% in the assay with WM3619 and 84% in the assay with WM451Lu.

In the case of `O=C(O)c1ccc2c(c1)nc(Nc1cccc(Cl)c1)c1ccncc12` + C[C@@H]1CCN(C(=O)CC#N)C[C@@H]1N(C)c1ncnc2[nH]ccc12 [CP690550] (first compound 0.4 µM, partner dose 1 µM), the cell count with MZ2-MEL was determined as 90.1%; in the assay on MeWo, 94.9%; in the assay on RPMI7951, 94.4%; in the assay with RVH-421 it was 108%; in the assay on SkMel28 it was 107%; in the assay on SkMel2 it was 91.7%. The cell count in the assay with SkMel30 amounted to 107%; in the assay on SkMel5 it was 118%; with UACC257, 89.2%; in the assay on UACC62, 87.8%; in the assay with WM115 it was 122%; with WM1716, 94.3%. In addition, the cell count in the assay on WM1745 is 114%; in the assay with WM3526, 94.6%; in the assay on WM3619, 100%; in the assay with WM451Lu, 92.2%.
